Assay [1] addresses T1, human HER2-His protein (Acro, Cat. No. HE2-H5225) (human, UniProt P04626 in part).
T1 construct: also called human HER2 protein; recombinant human HER2-His
In words: ELISA, 10 nM.

Assay [2] has as its target T1, human HER2-His protein (Acro, Cat. No. …). Description: ELISA, 0.01 nM.
For assay [3] the target is unchanged. In words: ELISA, 1 nM. Background: In an ELISA, binding on a coated surface is turned into a signal by an enzyme label.
In assay [4] the target is T2, human HER2 protein on cells (SK-BR-3 endogenous; CHO-K1-human HER2 recombinant) (human, UniProt P04626).
T2 construct: also called human HER2-CHO-K1 cells
Description: FACS on CHO-K1-human HER2 cells.

Assay [5] addresses T1, human HER2-His protein (Acro, Cat. No. …). Description: ELISA, 0.1 nM.
The target in assay [6] is T2, human HER2 protein on cells (SK-BR-3 …). Description: FACS on SK-BR-3 cells.
Assay [7] has as its target T1, human HER2-His protein (Acro, Cat. No. …). In words: ELISA, 0.001 nM.
For assay [8] the target is unchanged. In words: ELISA, 0.0001 nM.
For assay [9] the target is unchanged. In words: ELISA, 100 nM.
The target in assay [10] is T3, monkey HER2-His protein (monkey).
T3 construct: Bought protein; also called monkey HER2 protein
Description: SPR, antibody captured on Protein A chip, monkey HER2-His analyte, 1:1 model. In general terms: In SPR one partner is held on a chip, and binding of the other changes the refractive index at the surface.

In assay [11] the target is T3, monkey HER2-His protein. In words: ELISA, coated monkey HER2-His.
For assay [12], the target named is T4, monkey HER2 on HEK293T-monkey-HER2 cells (monkey).
T4 construct: whole, on cells
Description: FACS on HEK293T-monkey-HER2 cells.

For another assay, the target named is T5, murine HER2-His protein (murine, UniProt P70424 23-653).
T5 construct: Bought protein; also called murine HER2 protein; not shown: His tag
In words: ELISA, coated murine HER2-His.

The target in assay [13] is T6, recombinant human HER2-His protein (human, UniProt P04626 in part, limits assumed).
T6 construct: also called human HER2 protein; not shown: His tag
Description: SPR, antibody captured on Protein A chip, human HER2-His analyte, 1:1 model.

Chain of murine HER2-His protein (P70424 23-653): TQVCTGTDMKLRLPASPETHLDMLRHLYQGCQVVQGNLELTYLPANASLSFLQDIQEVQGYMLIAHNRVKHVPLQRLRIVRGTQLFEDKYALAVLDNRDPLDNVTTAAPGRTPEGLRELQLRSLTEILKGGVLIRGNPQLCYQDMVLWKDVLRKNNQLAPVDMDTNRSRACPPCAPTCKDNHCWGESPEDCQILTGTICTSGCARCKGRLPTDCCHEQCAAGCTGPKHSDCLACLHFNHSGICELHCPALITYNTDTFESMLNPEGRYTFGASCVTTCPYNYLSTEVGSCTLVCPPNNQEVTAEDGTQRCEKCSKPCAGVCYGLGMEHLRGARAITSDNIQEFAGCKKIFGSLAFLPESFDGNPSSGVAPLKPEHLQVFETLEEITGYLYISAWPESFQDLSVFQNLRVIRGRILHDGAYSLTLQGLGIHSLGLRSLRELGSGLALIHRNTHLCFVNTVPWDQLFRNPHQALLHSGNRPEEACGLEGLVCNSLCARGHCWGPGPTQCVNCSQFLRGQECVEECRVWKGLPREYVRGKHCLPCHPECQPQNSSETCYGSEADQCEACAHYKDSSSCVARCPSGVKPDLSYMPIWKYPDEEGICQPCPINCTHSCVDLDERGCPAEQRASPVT

B1: NB146-27 VHH-hFc (Fc fusion)
chain: EVQLVESGGGLAQPGGSLRLSCAASGFRFTSYWMHWVRQAPGKGLEWVSAINTGGGSTYYADSVKGRFTISRDNAKNTLYLQMNSLKPEDTALYYCARDLSGSDYVVGITSWGQGTQVTVSS[human IgG1 Fc with changes not written out]
Broadly, the EC50 is the midpoint of the concentration-response curve. B1: the OD450 in assay [1] came out at 2.27; in [2], 0.11; in [3], 1.95; in assay [5], 0.59; in [7] it was 0.05; in assay [8], 0.05. The OD450 in [9] stood at 2.85. The EC50 in assay [4] turned out to be 3.81 nM; in assay [6], 4.12 nM. Also, the “Max MFI” value in assay [4] was 1130; in assay [6], 6310.

B2: NB146-28 VHH-hFc (Fc fusion)
chain: EVQLVESGGTRVQPGGSLKLSCATSGIMFSYNTMAWYRQAPGKQRELVATITRDGSTNYADSMKGRFTISRDNAKNTLYLQMNGLKPEDTAVYYCNLGTTDWRRYNYWGQGTQVTVSS[human IgG1 Fc with changes not written out]
For B2, the OD450 in [1] was found to be 2.3; in assay [2], 0.1; in assay [3], 2.03; in assay [5], 0.65; in assay [7] it was 0.05; in assay [8], 0.05. In addition, in assay [9], the OD450 was 2.56. For the same molecule, the figures for the half-maximal effective concentration (EC50) in assay [4] and in assay [6] were 0.46 nM and 1.54 nM, respectively. The “Max MFI” value in assay [4] was 1120; in assay [6] it was 6940.

B3: NB146-54 VHH-hFc (Fc fusion)
chain: QLQLVESGGGLVQAGGSLRLSCVASGTFFSTKTMAWYRQAPGNQREWIATISPDGTTRHADSMKGRSTISRDNAKKVVYLQLDSLKPEDTAAYYCRDISRDLWGQGTQVTVSS[human IgG1 Fc with changes not written out]
As for B3, the OD450 in [1] worked out at 1.87; in [2], 0.09; in [3], 1.82; in assay [5], 0.45; in [7], 0.05; in assay [8], 0.05. Moreover, the OD450 in assay [9] was found to be 1.97. Moreover, the EC50 in assay [4] was determined as 0.9 nM; in [6], 2.17 nM. Besides, the results for the “Max MFI” value in [4] and in assay [6] were 1550 and 8260, respectively.

B4: NB147-102 VHH-hFc (Fc fusion)
chain: QLQLVESGGGLVQPGGSLRLSCSASGRTFNNYVMAWFRQAAGKEREFVANINTSGGRTTYTDSVKDRFTISRDNAKNTMYIQMNNLKAEDTAVYYCAARILYNSDNSDYRKYYYWGQGTQVTVSS[human IgG1 Fc with changes not written out]
notes: the junction is not described
As a reminder, the Kd is the concentration at which binding is half-saturated. A word on the koff: it is the first-order rate constant of dissociation. What is called kon is the rate constant with which the complex forms. In the case of B4, in the assay with monkey HER2-His protein [10], the Kd worked out at 55.4 nM, the koff was 0.0192 s⁻¹ and the kon amounted to 346000 M⁻¹ s⁻¹. In the assay with monkey HER2-His protein [11], the “OD450 nm at 0.0001 nM antibody” value was 0.06 OD450 nm, the “OD450 nm at 0.001 nM antibody” value came to 0.07 OD450 nm, the “OD450 nm at 0.01 nM antibody” value came to 0.18 OD450 nm and the “OD450 nm at 0.1 nM antibody” value was 1.13 OD450 nm. Besides, in the assay with monkey HER2-His protein [11], the “OD450 nm at 1 nM antibody” value stood at 2.83 OD450 nm, the “OD450 nm at 10 nM antibody” value amounted to 2.66 OD450 nm and the “OD450 nm at 100 nM antibody” value worked out at 3.01 OD450 nm. In assay [12], a half-maximal effect (EC50) was put at 1.2 nM and the “Max MFI” value came to 21400 MFI. Moreover, in the assay with murine HER2-His protein, the “OD450 nm at 0.0001 nM antibody” value stood at 0.05 OD450 nm, the “OD450 nm at 0.001 nM antibody” value came to 0.06 OD450 nm, the “OD450 nm at 0.01 nM antibody” value turned out to be 0.05 OD450 nm and the “OD450 nm at 0.1 nM antibody” value amounted to 0.06 OD450 nm. Moreover, in the assay with murine HER2-His protein, the “OD450 nm at 1 nM antibody” value came out at 0.05 OD450 nm, the “OD450 nm at 10 nM antibody” value stood at 0.07 OD450 nm and the “OD450 nm at 100 nM antibody” value was 0.15 OD450 nm. Besides, in assay [13], the Kd is 16.2 nM, the koff came out at 0.00361 s⁻¹ and the kon worked out at 223000 M⁻¹ s⁻¹.

The record behind these values is patent US20240076403A1 (SIMCERE ZAIMING PHARMACEUTICAL, published 2024).
